Measured values as given in publication PMC4336329 (PLoS ONE, 2015).
In all, about 310,000 compounds went through this assay and about 14,000 (4.5%) showed an effect of 50% or more. The effect is printed as a negative number. This is one part of the list.

Target: human ether-à-go-go-related gene (hERG) potassium channel (human, UniProt Q12809)
Experiment: primary screen, population patch clamp on CHO cells stably expressing hERG
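Further: peak tail current of the secondary pulse compared with the same well before compound.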

Sequence of human ether-à-go-go-related gene (hERG) potassium channel (Q12809 whole entry, looked up): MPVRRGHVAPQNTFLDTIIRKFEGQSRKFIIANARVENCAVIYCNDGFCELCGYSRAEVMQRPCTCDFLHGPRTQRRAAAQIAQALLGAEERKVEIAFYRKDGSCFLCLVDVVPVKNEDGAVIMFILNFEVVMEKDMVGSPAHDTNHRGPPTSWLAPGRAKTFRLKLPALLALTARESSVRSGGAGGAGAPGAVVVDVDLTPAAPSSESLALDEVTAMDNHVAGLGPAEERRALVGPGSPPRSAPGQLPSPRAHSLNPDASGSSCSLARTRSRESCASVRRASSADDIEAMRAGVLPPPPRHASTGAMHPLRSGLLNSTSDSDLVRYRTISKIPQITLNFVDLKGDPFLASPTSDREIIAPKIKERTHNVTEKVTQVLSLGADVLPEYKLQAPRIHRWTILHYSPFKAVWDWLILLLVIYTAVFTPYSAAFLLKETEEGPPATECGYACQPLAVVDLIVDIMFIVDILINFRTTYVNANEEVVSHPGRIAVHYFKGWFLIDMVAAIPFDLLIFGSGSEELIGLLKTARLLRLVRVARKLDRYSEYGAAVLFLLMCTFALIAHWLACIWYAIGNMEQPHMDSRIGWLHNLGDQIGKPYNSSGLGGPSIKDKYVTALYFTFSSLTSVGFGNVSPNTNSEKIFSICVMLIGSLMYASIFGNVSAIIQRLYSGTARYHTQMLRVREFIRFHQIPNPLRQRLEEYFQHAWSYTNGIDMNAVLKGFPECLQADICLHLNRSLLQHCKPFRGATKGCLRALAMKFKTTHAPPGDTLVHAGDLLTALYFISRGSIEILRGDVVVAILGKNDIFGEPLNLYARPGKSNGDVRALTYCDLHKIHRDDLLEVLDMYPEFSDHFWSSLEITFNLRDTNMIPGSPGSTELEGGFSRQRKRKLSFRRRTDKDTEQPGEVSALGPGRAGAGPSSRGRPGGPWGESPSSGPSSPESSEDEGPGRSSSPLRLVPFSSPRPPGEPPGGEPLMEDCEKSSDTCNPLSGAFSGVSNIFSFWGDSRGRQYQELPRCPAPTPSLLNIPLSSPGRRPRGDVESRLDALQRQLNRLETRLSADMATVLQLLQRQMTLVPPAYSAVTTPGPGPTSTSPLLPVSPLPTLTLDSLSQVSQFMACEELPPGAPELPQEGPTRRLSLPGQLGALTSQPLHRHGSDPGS

Structure (SMILES)	hERG current change (%, negative = inhibition) at 10uM [%]
COc1ccc(C(=O)/C=C/c2ccccc2F)c(OC(=O)c2ccc([N+](=O)[O-])cc2)c1	6.24
COc1ccc(C(=O)NN(C)c2nc(-c3ccccc3)nnc2C(F)(F)F)cc1	7
Cc1cc(C)nc(-n2c(C)nc3cc(Cl)ccc3c2=O)c1	16.8
CC1C(=O)Nc2ccc(S(=O)(=O)NCCc3ccc(Cl)cc3)cc2NC1=O (stereo not shown)	5.99
CCCn1c(/C=C/c2ccco2)nc2ccccc21	0.213
Cc1cccc(C(=O)Nc2sc(C(=O)N3CCCC3)c(C)c2C#N)c1	5.76
COc1ccc(Oc2coc3cc(OC(=O)/C=C/c4ccccc4)ccc3c2=O)cc1	1.72
N#Cc1ccccc1OCC(=O)N1CCc2ccccc2C1	-2.7
COCCNC(=S)Nc1ccc(S(=O)(=O)Nc2cnc3ccccc3n2)cc1	13.5
Cc1cc(C)nc(N/N=C/c2c(C)oc3ccccc23)n1	7.15
COc1cc[n+](OC(=O)N2CCCCC2)c(C)c1.c1ccc([B-](c2ccccc2)(c2ccccc2)c2ccccc2)cc1	-5.95
CSc1nccc(N/N=C/c2ccccc2)n1	23.9
COc1ccc(OC)c(/C=N/NC(=O)CNC(=O)c2cccc3ccccc23)c1	11.2
O=C1C(=O)N(Cc2ccncc2)C(c2cccc(O)c2)/C1=C(\O)c1ccc2c(c1)OCCO2 (stereo not shown)	23.8
O=C(NC1CC1)C1=C[C@@H](c2ccc(C(F)(F)F)cc2)C[C@@H](OCCCCO)O1	-5.9
Cc1cc(C)nc(SCC(=O)OCC(=O)Nc2ccccc2)n1	0.8
CCCN1C(=O)C(NC(C)=O)c2cc(OC)ccc21 (stereo not shown)	21.6
CC1CCN(CCCNC(=O)c2cc3c(s2)-c2ccccc2OC3)CC1	-74.6
Cc1ccc(CN2C(=O)c3ccccc3NC2c2ccccn2)cc1 (stereo not shown)	-14.4
Cc1ccc(C(C)C)c(OCc2nn(CC(=O)c3ccc(OC(F)F)cc3)c3[n+]2CCCCC3)c1.[Br-]	-72.5
N#CC1=C(N)N(c2ccccc2)C2=C(C(=O)CCC2)C1c1ccsc1 (stereo not shown)	-27.2
CCOc1cccc2sc(N(CCN(C)C)C(=O)c3cc4ccccc4cc3OC)nc12.Cl	-68.1

Structure (SMILES)	hERG current change (%, negative = inhibition) at 10uM [%]
O=C(CCc1ccc(CCC(=O)c2cccs2)s1)c1cccs1	4.49
O=C(O)c1ccc(Cl)c(NC(=S)NC(=O)c2cccc(COc3ccccc3)c2)c1	30.4
Oc1cccc(/C=N/Nc2ncnc3c2ncn3Cc2ccccc2)c1	-11.4
COc1ccccc1NC(=O)c1cc[n+]([O-])cc1	15.8
C/C(=N\NC(=O)c1cc(-c2ccc(C)s2)[nH]n1)c1ccncc1	-1.13
CCOC(=O)C1(CCc2ccccc2)CCN(C2Cc3ccccc3C2)CC1	-64.8
CC1CCN(CCCN2C(=O)C3C(C(=O)Nc4cccc(Cl)c4)C4C=CC3(O4)C2C(=O)NC2CCCCC2)CC1 (stereo not shown)	2.22
CCC(CC)N1CCN(Cc2nc3ccc([N+](=O)[O-])cc3c(=O)n2-c2ccccc2F)CC1	-57
O=C(N1CCOCC1)N1CCN(S(=O)(=O)c2ccc(F)cc2)CC1	9.8
CN(C)S(=O)(=O)c1ccc(N2CCCC2)c(C(=O)N2CCN(S(=O)(=O)c3ccccc3F)CC2)c1	-6.1
C/C(=N\Nc1cccc(Cl)c1)c1ccc(-n2ccnc2)cc1	2.23
CCC1=C(OC(=O)N(CC)CC)N2C(=O)OC(=NCCc3c[nH]c4ccccc34)[C@]2(Cc2ccccc2)[C@H]2C1=CC[C@H]1C(=O)NC(=O)[C@H]12	9.22
Cn1c(C(=O)NC2CCCCC2)cc2sccc21	-7.87
O=C(Nc1ccc(C(=O)O)cc1)/C(=C\c1cccc([N+](=O)[O-])c1)NC(=O)c1ccc(Br)o1	32.7
COc1ccccc1CNC(=O)COC(=O)c1nccnc1N	26.7
COc1ccc2c(c1)nc(SCC(O)c1ccccc1)n2C (stereo not shown)	-60.2
COc1ccc(COC(=O)N/N=C(\C)CC(=O)Nc2ccc(Cl)cc2)cc1	-40.9
CN1CCN(C(=O)/C=C/c2c(F)cccc2Cl)CC1	-6.29
CN1CCN(Cc2nc3ccccc3c(=O)n2Cc2nc(-c3ccc([N+](=O)[O-])cc3)cs2)CC1	-73.8
CCN(CC)C(=O)C(=O)c1cccn1-c1c(Cl)cccc1C#N	7.17
CN(C)/N=C/c1ccc(Sc2ccc([N+](=O)[O-])cc2[N+](=O)[O-])o1	7.3
CN(Cc1ccc(F)cc1)C(=O)c1sccc1-c1ccccc1	0.217

Structure (SMILES)	hERG current change (%, negative = inhibition) at 10uM [%]
Cc1cc(C)n(C(=O)C23CC4CC(CC(C4)C2)C3)n1	29.2
CCC(Sc1nc2ccncc2[nH]1)C(=O)Nc1ccc(C)c(Cl)c1 (stereo not shown)	-34.7
CCOC(=O)N/N=C/c1cn(Cc2ccc(F)cc2)c2ccccc12	3.37
O=C(CSc1nc2ccccc2c(=O)n1-c1ccccc1F)NC1CCS(=O)(=O)C1 (stereo not shown)	-57
CCCCc1cc2c(cc1NC(=O)CN1CCCCC1)OCCO2.Cl	3.82
Cc1ccc(-c2nn(-c3ccccc3)cc2CO)o1	-0.28
Oc1ccc(CN2CCN(c3ccccc3)CC2)c2cccnc12	0.392
Cc1c(N=C2SCC(=O)N2/N=C/c2ccccc2)c(=O)n(-c2ccccc2)n1C	-2.35
CC(C)OCCCNC(=O)C(NC(=O)c1ccc(Cl)cc1)C(C)C (stereo not shown)	15.2
CC1C(C#N)=C(N)OC2=C1C(=O)CC(c1ccccc1)C2 (stereo not shown)	-5.87
CC1=C(N2CCOCC2)CCC1=O	12.4
Cc1cc(=O)[nH]c2nnc(SCC(=O)N3CC(C)OC(C)C3)n12 (stereo not shown)	5.43
Cc1cc(C)nc(NS(=O)(=O)c2ccc(N/C=C\C(=O)c3ccc(Cl)cc3)cc2)n1	9.03
Cc1cc(NC(=O)CSc2nnc(-c3ccccc3F)n2C)no1	3.71
COc1ccccc1/C=C1/SC(=S)N(C(C)C(=O)NC2C=CS(=O)(=O)C2)C1=O (stereo not shown)	12.9
Cc1cc(C)c(C)c(OCC(O)CN2CCN(c3ccccn3)CC2)c1.Cl (stereo not shown)	-54.4
COC(=O)c1cccc(NC(=O)c2cccnc2C(=O)O)c1C	24.5
CC(Cc1cccs1)NC(=O)c1cccs1 (stereo not shown)	16.7
COc1ccc(S(=O)(=O)NCC2CCCN(C(=O)CSC)C2)cc1 (stereo not shown)	21.7
COc1ccc(OC)c(/C=C/C(=O)OCC(=O)Nc2cccc(C(C)=O)c2)c1	5.38
O=C(Nc1ccc(S(=O)(=O)NC2=NCCCCC2)cc1)c1ccccc1Cl	0.281
Cc1ccc(C2C(C#N)=C(N)Oc3cc(N)ccc32)cc1 (stereo not shown)	8.21

Structure (SMILES)	hERG current change (%, negative = inhibition) at 10uM [%]
O=S1(=O)CC(O)C(N=Nc2c(O)n(Cc3ccccc3)c3ccccc23)C1 (stereo not shown)	3.21
COc1ccc(C(=O)Nc2ccc(N3CCN(C)CC3)cc2)cc1	-15
Cc1c(Cl)ccc2c(C(=O)NCCN3CCCCC3)cc(-c3ccccn3)nc12	-24.6
CCOC(=O)N1CCC(N2CC34C=CC(O3)C(C(=O)Nc3ccc(C(C)C)cc3)C4C2=O)CC1 (stereo not shown)	-21.8
Cc1cc(C)cc(-n2c(C)c3c(C)nnc(C)c3c2C)c1	-21.4
NC(=O)CSc1nnc(-c2ccc(S(=O)(=O)N3CCCCC3)cc2)n1-c1ccccc1	-14.2
Cc1ncc(CO)c2c1Oc1nc(-c3ccccc3)nc(SCC(=O)N(C)c3ccccc3)c1C2	13.1
COC(=O)NC1CSCC1OC(=O)CN1C(=O)c2ccccc2C1=O (stereo not shown)	-5.99
CCOc1ccc(-c2nc(C#N)c(NCC3CCCO3)o2)cc1 (stereo not shown)	-21.6
Cc1cccc(N(Cc2ccccc2)C(=O)c2cc(S(=O)(=O)N3CCOCC3)ccc2Cl)c1	-13.3
CCn1c(SCC(=O)N2CCCC2)nc2c1c(=O)n(C)c(=O)n2C	-6.79
Cc1nc(N)sc1-c1nnc(SCC(=O)Nc2ccccc2C(F)(F)F)n1C	15.1
Cc1cc(C)n(CC(=O)NNC(=O)COc2ccc(F)cc2Br)n1	15.6
CCOC(=O)C1CCN(CCC(=O)Nc2ccc(Cl)cc2)CC1	-62.4
O=C1[C@@H]2[C@@H]3C[C@@H]([C@H]4ON=C(c5ccc(Cl)cc5)[C@@H]34)[C@@H]2C(=O)N1C1CCCCC1	-24.6
CCOC(=O)CCCNC(=O)c1cncc(Br)c1	-0.786
Cc1cccc(C)c1NC(=S)NCCSc1ccc(Cl)cc1	14.7
O=C(Nc1cccnc1)c1cc(S(=O)(=O)N2CCCCC2)c(Cl)cc1Cl	-10.6
CC1CC(C)CN(C(=O)CSc2nnc(N)s2)C1 (stereo not shown)	11.4
